Experimental data reported in the supplement of paper PMC4166925.
± gives the standard deviation of the averaged measurements. Whole data set: some 33,000 sequences, median “E-score (dimensionless, -0.5 to 0.5)” near -0.046, cut for the highest 2% near 0.36. The list shows a part of the results.

These sequences were tested on T1, SpTbr T-box DNA-binding domain (GST fusion) (assay: PBM E-score of 8-mer (E-score (dimensionless, -0.5 to 0.5)); Tbr is Tbrain of the sea star Patiria miniata (Pm) or the sea urchin Strongylocentrotus purpuratus (Sp); higher = stronger binding preference; most listed sequences are background and not binding sites). Conditions: the construct has about 5 more residues each side.
T1 sequence: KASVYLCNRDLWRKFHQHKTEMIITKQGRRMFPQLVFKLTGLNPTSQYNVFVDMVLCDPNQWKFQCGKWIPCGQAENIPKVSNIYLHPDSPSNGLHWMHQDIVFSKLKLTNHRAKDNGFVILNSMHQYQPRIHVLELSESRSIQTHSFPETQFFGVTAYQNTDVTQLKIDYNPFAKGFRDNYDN
Procedure, shortened: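 Using the Universal PBM Analysis Suite, every ungapped 8-mer received an enrichment E-score averaged over duplicate arrays. Probe intensities came from double-stranded Universal Agilent oligonucleotide arrays incubated with 200 nM GST-fused Tbr T-box DNA-binding domain in PBS (pH 7.5). That protein was expressed in BL21 E. coli at 20 °C and purified by glutathione affinity chromatography.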

Row | Sequence | PBM E-score of 8-mer
1 | ACTTGAGG | -0.00245 ± 0.078
2 | AGACAGTG | 0.142 ± 0.02
3 | AGACTTTA | -0.129 ± 0.0041
4 | GAAATCTA | -0.265 ± 0.056
5 | AGCACAGA | -0.133 ± 0.055
6 | ATGTCTGG | -0.0896 ± 0.023
7 | AGAATTCT | -0.188 ± 0.1
8 | CCTGTCGC | 0.278 ± 0.013
9 | AGGGAATG | -0.277 ± 0.081
10 | CCTTTTTC | -0.0994 ± 0.085
11 | GTAGTTTA | 0.0126 ± 0.092
12 | GAATAGCA | 0.189 ± 0.0036
13 | GAACTGGC | -0.193 ± 0.04
14 | CCGAATCG | -0.0388 ± 0.081
15 | AGACCACA | -0.00177 ± 0.065
16 | AGAAGAGC | -0.187 ± 0.051
17 | ACTACGCG | 0.116 ± 0.038
18 | AAACGTCG | -0.117 ± 0.014
19 | AATTATGT | -0.0597 ± 0.041
20 | ACCGTTCC | -0.000825 ± 0.11
21 | CCGTGAGC | 0.167 ± 0.05
22 | AGAGACGA | -0.123 ± 0.088
23 | GCAGTGGC | 0.136 ± 0.063
24 | CACCAGTA | 0.0243 ± 0.054
25 | ATAGGGGC | -0.213 ± 0.0011

Row | Sequence | PBM E-score of 8-mer
26 | AAACTGGA | -0.0747 ± 0.033
27 | CATTACAA | -0.169 ± 0.045
28 | TCAACCGA | -0.0626 ± 0.069
29 | CAGTATGG | -0.28 ± 0.043
30 | CGATCGTC | 0.101 ± 0.04
31 | CCACAGTC | 0.106 ± 0.036
32 | CAGCGTAA | -0.053 ± 0.0028
33 | AAACATAT | -0.0243 ± 0.006
34 | AAGTGCCA | 0.4045 ± 0.0038
35 | GTTGTGGA | 0.0677 ± 0.047
36 | CGAAAAAC | 0.0208 ± 0.028
37 | GGATGCAA | -0.068 ± 0.01
38 | CCCGTCCC | -0.148 ± 0.028
39 | CGAGCATA | 0.115 ± 0.027
40 | GTAACTGA | 0.0238 ± 0.12
41 | CAAGGCTC | -0.14 ± 0.04
42 | AGGTAGGA | -0.154 ± 0.047
43 | GACCTAAA | -0.117 ± 0.041
44 | GAAAGCAA | -0.0479 ± 0.068
45 | ACACGATA | 0.0502 ± 0.0083
46 | TGGTCCAA | -0.227 ± 0.05
47 | CTAGGGAG | -0.232 ± 0.037
48 | ACCTTAGC | 0.211 ± 0.014
49 | CCGTAAGA | -0.193 ± 0.068
50 | CTAGAACA | -0.0343 ± 0.012

Row | Sequence | PBM E-score of 8-mer
51 | AACCCCGA | -0.291 ± 0.066
52 | TGAGCGAA | 0.126 ± 0.1
53 | GGGCCCCC | -0.275 ± 0.037
54 | AGCGTACG | -0.105 ± 0.047
55 | AGGGTCAT | -0.0914 ± 0.015
56 | AACGTCGT | -0.0793 ± 0.016
57 | GTGTAGTA | 0.0211 ± 0.026
58 | CTGGCTGA | -0.177 ± 0.019
59 | AGTCGCAA | 0.132 ± 0.0059
60 | ATTAATAG | -0.0401 ± 0.09
61 | CCCACCAA | -0.0327 ± 0.016
62 | AAGGCCCT | -0.175 ± 0.06
63 | CTCAAAGC | -0.123 ± 0.062
64 | AGTTGGAA | -0.116 ± 0.06
65 | AATCGGTA | -0.203 ± 0.016
66 | TCACCTAA | 0.301 ± 0.018
67 | CATTCGCA | 0.384 ± 0.0068
68 | GAATGTGA | 0.275 ± 0.024
69 | GAGAGCTC | -0.132 ± 0.08
70 | AGATCCAG | -0.0581 ± 0.055
71 | ATCAGTTC | 0.00551 ± 0.05
72 | AATCGCGT | 0.194 ± 0.039
73 | CTCCACTA | 0.0717 ± 0.054
74 | CGCCAGCA | 0.0539 ± 0.1
75 | TATATGCA | -0.113 ± 0.014

Row | Sequence | PBM E-score of 8-mer
76 | GTAGTAGA | -0.226 ± 0.0061
77 | CAACAACA | 0.243 ± 0.087
78 | CAGTGGAC | -0.134 ± 0.018
79 | CGGAGCAG | 0.0439 ± 0.035
80 | ATGCCTCA | -0.199 ± 0.051
81 | GCTGGCGA | 0.0541 ± 0.0059
82 | TAGTCGAA | -0.00342 ± 0.047
83 | AGTACGAA | 0.00453 ± 0.015
84 | CGGCGAGA | 0.0865 ± 0.029
85 | ATGCCACC | 0.276 ± 0.036
86 | CTACATAC | -0.181 ± 0.086
87 | ATTATAGC | -0.13 ± 0.028
88 | CCTGCATC | -0.2 ± 0.0089
89 | AATGCCAG | -0.252 ± 0.051
90 | ACGATACT | 0.0112 ± 0.024
91 | ATGCGTAG | -0.11 ± 0.011
92 | GATTTAAC | -0.144 ± 0.031
93 | CTACGGCA | -0.152 ± 0.041
94 | GTCGTTCA | 0.213 ± 0.0094
95 | CCGGCCAA | -0.208 ± 0.042
96 | GGTTTCTA | -0.145 ± 0.013
97 | CTGTGTTA | 0.195 ± 0.079
98 | ATTATCCA | -0.11 ± 0.0037
99 | ATTAATCG | 0.0316 ± 0.06
100 | GGCTCTGA | -0.0838 ± 0.0016

Row | Sequence | PBM E-score of 8-mer
101 | GTGGGGCA | -0.108 ± 0.036
102 | ATCACTTA | 0.0863 ± 0.053
103 | CTGTAGGC | -0.1 ± 0.053
104 | TCTCATCA | 0.19 ± 0.015
105 | CACGTTAC | 0.22472 ± 0.00017
106 | CTTACTTA | -0.127 ± 0.026
107 | CTACACTA | 0.152 ± 0.058
108 | GGTGTAAA | 0.436 ± 0.012
109 | ATAGTTAC | -0.214 ± 0.036
110 | ACAGGTCG | 0.15 ± 0.0023
111 | AACCAACC | -0.0537 ± 0.047
112 | AATTGTGG | 0.118 ± 0.022
113 | AAGACACT | -0.0609 ± 0.0052
114 | AGGTCTGG | 0.0378 ± 0.021
115 | ATATACCC | -0.159 ± 0.067
116 | CGCGAGCG | 0.251 ± 0.061
117 | ATGAGAAT | -0.0523 ± 0.014
118 | CTATACAG | -0.172 ± 0.045
119 | CGCACGAG | 0.139 ± 0.036
120 | AGTTCTTA | -0.119 ± 0.061
121 | GGTTATAC | 0.0871 ± 0.041
122 | CACGTCTA | 0.127 ± 0.024
123 | CGGTGCGC | -0.0128 ± 0.062
124 | CACTGCTC | 0.0763 ± 0.026
125 | GCACCCTA | 0.118 ± 0.032

Row | Sequence | PBM E-score of 8-mer
126 | AATCCGTA | -0.105 ± 0.056
127 | AATCTTTC | -0.175 ± 0.021
128 | GTATGAAC | 0.0223 ± 0.045
129 | AATCACTG | 0.118 ± 0.03
130 | ACACTCGG | 0.234 ± 0.062
131 | GCTGGGAC | -0.115 ± 0.086
132 | ATACACTG | -0.112 ± 0.12
133 | GACATACC | -0.121 ± 0.024
134 | AGAAAGCT | 0.103 ± 0.04
135 | CCGCTAGA | -0.0593 ± 0.0051
136 | GGGACTGA | -0.12 ± 0.06
137 | CTGGATGA | 0.0537 ± 0.034
138 | AGAAGGTG | 0.386 ± 0.015
139 | AGTAGGAG | -0.00869 ± 0.02
140 | GGGGTAAA | -0.149 ± 0.03
141 | AACAGTCC | 0.0405 ± 0.06
142 | AGATCGCA | 0.2544 ± 0.00049
143 | AGGAAGCG | 0.0119 ± 0.006
144 | ACGGACCT | -0.162 ± 0.11
145 | GGCGGGCA | -0.0643 ± 0.058
146 | AGGCATCA | -0.13 ± 0.083
147 | CGAAGAGA | -0.211 ± 0.018
148 | ACGCCCAG | 0.108 ± 0.047
149 | CCGCACCC | 0.226 ± 0.032
150 | CGCCGACC | 0.0201 ± 0.12

Row | Sequence | PBM E-score of 8-mer
151 | TCAGATAA | -0.14 ± 0.017
152 | CTGGGTAC | -0.187 ± 0.07
153 | AGTGGAAC | -0.0571 ± 0.084
154 | AGGTCACT | 0.158 ± 0.023
155 | ACGGTAGG | -0.181 ± 0.038
156 | AGCGAACC | 0.0666 ± 0.08
157 | TCCGTAGA | -0.244 ± 0.0095
158 | TAAACCTA | -0.0943 ± 0.041
159 | CAGGCTTA | -0.136 ± 0.015
160 | AATCATCC | -0.114 ± 0.037
161 | AAACCGTA | -0.0446 ± 0.042
162 | ATTCGCTA | 0.208 ± 0.024
163 | AGGGCGCC | 0.102 ± 0.048
164 | CATACGGC | -0.15 ± 0.044
165 | GATATAGA | -0.297 ± 0.049
166 | CTCATCAA | -0.0139 ± 0.026
167 | CGATAGCA | 0.239 ± 0.033
168 | ATGATCTA | -0.175 ± 0.091
169 | CTCAACCA | -0.0462 ± 0.082
170 | CGACCCCA | 0.0171 ± 0.0051
171 | ACGGTTGG | 0.0182 ± 0.044
172 | ACCAGTAC | -0.1716 ± 0.00054
